In all, about 33,000 sequences were measured (“E-score (-0.5 to 0.5)”: median about -0.035, highest 2% from about 0.35 on). Some of the results follow.

The source of these data is the supplement of paper PMC3334620.

The experiment addresses T1, Pdr3 (UniProt P33200).
T1 sequence: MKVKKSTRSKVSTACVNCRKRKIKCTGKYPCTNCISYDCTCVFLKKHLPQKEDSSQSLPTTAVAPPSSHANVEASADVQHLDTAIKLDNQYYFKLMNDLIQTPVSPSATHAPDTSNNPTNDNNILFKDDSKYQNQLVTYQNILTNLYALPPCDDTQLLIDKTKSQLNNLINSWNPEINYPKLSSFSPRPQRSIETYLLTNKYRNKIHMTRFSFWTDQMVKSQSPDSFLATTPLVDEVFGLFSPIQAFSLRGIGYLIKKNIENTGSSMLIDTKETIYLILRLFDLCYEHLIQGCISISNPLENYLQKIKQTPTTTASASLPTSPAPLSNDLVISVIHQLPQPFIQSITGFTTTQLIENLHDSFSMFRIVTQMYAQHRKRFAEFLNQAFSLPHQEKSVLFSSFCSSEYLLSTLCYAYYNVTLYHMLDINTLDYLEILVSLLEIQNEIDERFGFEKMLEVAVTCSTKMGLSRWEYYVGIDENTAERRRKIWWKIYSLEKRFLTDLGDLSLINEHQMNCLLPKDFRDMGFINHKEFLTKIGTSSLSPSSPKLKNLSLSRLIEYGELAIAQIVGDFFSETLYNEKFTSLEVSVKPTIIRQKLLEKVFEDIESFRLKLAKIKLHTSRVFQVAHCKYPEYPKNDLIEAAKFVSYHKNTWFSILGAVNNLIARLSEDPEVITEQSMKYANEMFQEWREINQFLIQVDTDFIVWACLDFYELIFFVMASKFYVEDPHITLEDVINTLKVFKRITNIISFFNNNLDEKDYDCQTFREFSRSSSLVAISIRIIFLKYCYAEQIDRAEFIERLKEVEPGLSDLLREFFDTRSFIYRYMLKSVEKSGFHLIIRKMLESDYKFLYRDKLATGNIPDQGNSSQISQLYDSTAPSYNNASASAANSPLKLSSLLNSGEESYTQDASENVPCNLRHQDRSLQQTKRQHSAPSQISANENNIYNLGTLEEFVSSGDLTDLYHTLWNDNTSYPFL
Description: PBM E-score (8-mer binding enrichment) (E-score (-0.5 to 0.5)); higher = stronger / more preferred TF binding; most listed sequences are background and not binding sites. The following applies: protein concentration: 200 nM; construct: GST-full length. An outline of the steps:
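PURExpress in vitro transcription/translation supplied GST-tagged yeast transcription factors, either full-length or DNA-binding domain. Applied at about 100-200 nM to universal all-10-mer Agilent arrays double-stranded by primer extension, the bound protein was detected with fluorescent anti-GST. E-scores, modified Wilcoxon-Mann-Whitney statistics, were given by the Universal PBM Analysis Suite to ungapped eight-base words pooled with their reverse complements after masliner normalisation.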
For AAAGCCGC, the “PBM E-score” value is 0.205. The value for TCTAGAGA was -0.283. Under CGTATTAG stands 0.0838; under AAAAGGTT, -0.0641; under ATTCATCC, 0.111. Turning to AGATAGTC, the “PBM E-score” value was -0.131.

As for CCCTGAGG, the “PBM E-score” value is -0.279.

Regarding CCATAATA, the “PBM E-score” value worked out at 0.0878. The value for CAGTGATC was -0.0442. For CGTGACCC, the “PBM E-score” value is 0.0915. On to AGTGGCCG, for which the “PBM E-score” value was found to be 0.0689. Consider CCCATCGC, for which the “PBM E-score” value worked out at 0.115.

For the sequence GTTTCTTA, the “PBM E-score” value was -0.0951. As to GAATTACA, the “PBM E-score” value came to 0.0153. With GCGGGAAA, the “PBM E-score” value is 0.332. For ATGTCGGA, the “PBM E-score” value worked out at 0.309. For the sequence GGCTGAAA, the “PBM E-score” value amounted to 0.0115. Turning to CTCTCGCC, the “PBM E-score” value was -0.144. Under AGATCGAA stands -0.067; under AAAATCTA, -0.0831; under AAACTCTA, -0.112.

For CAGGTTAA, the “PBM E-score” value was -0.116. With CTATGAGA, the “PBM E-score” value was -0.288. For AGTGCTGC, the “PBM E-score” value was -0.0743. As to CAGTTATC, the “PBM E-score” value is -0.11.

Turning to AGCGGCCA, the “PBM E-score” value is -0.0085. Regarding CGATCCCC, the “PBM E-score” value stood at 0.0699.

Consider AAAATAGA, for which the “PBM E-score” value is 0.0344. ATTCAGTC: the “PBM E-score” value was -0.0119. Regarding AAATCACA, the “PBM E-score” value is -0.174. For GATGCTAC, the “PBM E-score” value was -0.0767. For the sequence CCCGTGCC, the “PBM E-score” value amounted to 0.231.

In the case of ACGAGAGA, the “PBM E-score” value was -0.0507. For the sequence ATGATGGC, the “PBM E-score” value turned out to be 0.0224. On to AGCTACAA, for which the “PBM E-score” value was -0.109. The value for ACATGATG was -0.121; that for AATTACGG was 0.144. Turning to ATAGAATC, the “PBM E-score” value was -0.0738. In the case of AACTCGGT, the “PBM E-score” value was -0.0782. The value for AATGAAAT was 0.0416; that for TCTCTGAA was -0.254.

As for GCTCTACC, the “PBM E-score” value is -0.226. The value for AAAAAGAA was 0.00545. Consider AGTATCCC, for which the “PBM E-score” value worked out at 0.0316.

In the case of AACATTGT, the “PBM E-score” value was -0.043.

Turning to AACCCATA, the “PBM E-score” value was found to be 0.0783. With GCTCCACC, the “PBM E-score” value was -0.175.

Regarding ACCCCTCG, the “PBM E-score” value was -0.00604. For the sequence AGCTCAAC, the “PBM E-score” value was 0.041. In the case of AGTGACTG, the “PBM E-score” value is -0.158.

Regarding ACCGTCGG, the “PBM E-score” value was 0.157. In the case of ATCGCCGG, the “PBM E-score” value worked out at 0.373. In the case of GTTTTTAA, the “PBM E-score” value is -0.0972. On to GCGTGGAA, for which the “PBM E-score” value came out at 0.0102. In the case of GTACAAAC, the “PBM E-score” value was 0.0119. Turning to GGCATGTA, the “PBM E-score” value was 0.00346. The value for TATGGTAA was 0.0412.

Consider ATAATTAG, for which the “PBM E-score” value is 0.0627. Regarding ACCATGTG, the “PBM E-score” value is -0.159. Turning to TCCCATCA, the “PBM E-score” value is -0.209. Under AAAGCGTC stands -0.185.

Consider AGCCCGGC, for which the “PBM E-score” value came out at 0.264.

Take AAAGTACT: the “PBM E-score” value is -0.0862. Under CCCACAGC stands -0.262. Consider CATCCACC, for which the “PBM E-score” value is -0.0102. Under GTAAGAAA stands 0.00091.

As to CCAGACCG, the “PBM E-score” value was 0.0829. Under CATAACCA stands -0.072; under GTGAGTCA, -0.211. Under ATTAGTGA stands 0.0666; under AACGAGTC, -0.165. For AGCATTGG, the “PBM E-score” value was -0.2. AGCCTCGC: the “PBM E-score” value was -0.122. Under GTCAAGTA stands -0.325; under AAAGAGTG, -0.191; under CACTGCGC, -0.052. Turning to GTCCACTA, the “PBM E-score” value is -0.141. AGTAAAAG: the “PBM E-score” value turned out to be 0.104. Regarding CGAAAGTC, the “PBM E-score” value is -0.0173. Consider CAAAAGTG, for which the “PBM E-score” value was -0.092.

With CGCTGTCC, the “PBM E-score” value stood at 0.153. Under GAGACTCC stands 0.0113; under AGGAGAGA, -0.191. In the case of TGGAAGAA, the “PBM E-score” value stood at 0.0835. Take ATCATGCC: the “PBM E-score” value was -0.0715. On to ACTCTACC, for which the “PBM E-score” value was -0.0156.
